# In PubChem BioAssay AID485294 (National Center for Advancing Translational Sciences (NCATS), 2010):
# The whole screen tested about 370,000 compounds, of which about 150 (0.041%) were called active. Inconclusive means that the source gave no clear call. Such entries were picked first, then a sample of the others. Calls come from the whole dose curve; as a rule, active = well fitted inhibition curve with a large enough effect; inconclusive = small, poorly fitted or top-dose-only effect; inactive = flat fitted curve, though single readings scatter. No potency is given beside an inconclusive call; the fits are too rough.
# Target: Beta-lactamase (Escherichia coli (strain K12)) (UniProt P00811)
# Test: qHTS Inhibitors of AmpC Beta-Lactamase (assay with detergent); note: nearly all actives have a fitted effect of over 25% in size
# Settings: AmpC hydrolysis of nitrocefin, absorbance 480 nm, 0.01% Triton; series mostly up to 114 µM
# How it was run: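 AmpC (5.3 nM in the dispensed reagent) in 20 mM phosphate pH 7.0 with 0.01% (detergent screen) or 0.0001% Triton X-100 was preincubated with compounds for 15 min at room temperature. Nitrocefin was then added from an 800 uM solution, and hydrolysis was followed at 480 nm.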
# Potency is the fitted concentration of half-maximal effect; tags give direction and shape of the fitted curve.
# Sequence of UniProt P00811 (P00811 whole entry, looked up): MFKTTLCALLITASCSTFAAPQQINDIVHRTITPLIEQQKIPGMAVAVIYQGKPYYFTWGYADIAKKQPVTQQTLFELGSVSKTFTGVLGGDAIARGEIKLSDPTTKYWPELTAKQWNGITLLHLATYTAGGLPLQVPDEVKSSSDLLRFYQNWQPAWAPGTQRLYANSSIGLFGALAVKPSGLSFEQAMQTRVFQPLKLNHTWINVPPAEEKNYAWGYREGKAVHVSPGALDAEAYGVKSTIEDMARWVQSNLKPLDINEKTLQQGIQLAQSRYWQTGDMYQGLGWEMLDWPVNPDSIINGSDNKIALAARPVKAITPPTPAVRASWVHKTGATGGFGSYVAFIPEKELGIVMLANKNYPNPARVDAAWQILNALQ
row,Compound,Potency
1,COc1cc(C2=NOC(C(=O)NCc3ccccn3)C2)cc(OC)c1OC (centres undefined),"inconclusive [inhibitor, full curve]"
2,O=C(Nc1ccccc1)OCCCCCOC(=O)Nc1ccccc1,"inconclusive [inhibitor, partial curve, poor fit]"
3,O=C(CC(=O)c1ccccc1)Nc1ccc(Cl)cc1,inactive
4,CCOc1ccc2oc(C(=O)N(C)CC(=O)Nc3ccc(OCC)c(OCC)c3)c(C)c2c1,"inconclusive [inhibitor, single point]"
5,CCC(Cc1ccccc1)NC(=O)C1CCCCC1 (centres undefined),"inconclusive [inhibitor, single point]"
6,Cc1ccc(-c2cc(C(=O)OCC(=O)N(C)C3CCS(=O)(=O)C3)c3ccccc3n2)o1 (centres undefined),inactive
7,COc1cc2c(=O)n(CC3CCCO3)c(=O)n(CC(=O)Nc3ccc(F)cc3F)c2cc1OC (centres undefined),"inconclusive [inhibitor, full curve]"
8,COc1cc(NC(=O)C2CCN(S(=O)(=O)c3ccc(Cl)cc3)CC2)ccc1-n1cnnn1,"inconclusive [inhibitor, full curve, poor fit]"
9,Cc1ccc(NN=C2C(=O)OC(C)(C)OC2=O)c(C)c1,"inconclusive [inhibitor, partial curve, poor fit]"
10,CCCCCCOC(=O)c1ccc(OC(=O)c2cccnc2)cc1,"inconclusive [inhibitor, single point]"
11,CCOC(=O)c1[nH]cnc1C(=O)N1CCC(C)CC1,inactive
12,COc1ccccc1NC(=O)N1CCCC1C(=O)NCc1cccs1 (centres undefined),"inconclusive [inhibitor, full curve, poor fit]"
13,CCCCN(C(=O)CSc1c(C)c(C)cc(C)c1C)c1c(N)n(CCC)c(=O)[nH]c1=O,"inconclusive [inhibitor, full curve, poor fit]"
14,CCc1ccc2nc(N(Cc3cccnc3)C(=O)Cc3ccccc3)sc2c1,inactive
15,COc1ccccc1OCc1ccc(C(=O)NCc2ccco2)o1,inactive
16,COc1cc(OC)cc(C(=O)Nc2cccc(C(C)=O)c2)c1,inactive
17,CCS(=O)(=O)c1nc(S(=O)(=O)c2ccc(Cl)cc2)c(NCc2ccc(Cl)cc2)s1,inactive
18,Cc1cc(C(=O)N/N=C/c2ccc(-c3cccc([N+](=O)[O-])c3)o2)n[nH]1,"inconclusive [inhibitor, full curve, poor fit]"
19,CCN(CC)C(=O)c1ccc(NC(=O)c2ccc(-n3cncn3)c([N+](=O)[O-])c2)cc1,"inconclusive [inhibitor, full curve, poor fit]"
20,COC(=O)C1=C(C)N(Cc2ccccc2)C(=S)N[C@H]1c1cccc(C(F)(F)F)c1,inactive
21,O=C(Cn1ncc(Cl)c(Cl)c1=O)N1CCN(Cc2ccccc2)CC1,inactive
22,CCN(Cc1ccccc1)C(=O)Cn1c(=O)cc(C)c2c(C)nn(-c3cccc(F)c3)c21,inactive
23,CCn1nc(C)c(CCN(C)C(=O)Nc2cc(Cl)c(OC)cc2OC)c1C,inactive

row,Compound,Potency
1,COc1ccc(N=C2SC(CC(=O)Nc3ccccc3)C(=O)N2CC2CCCO2)cc1 (centres undefined),"inconclusive [inhibitor, full curve, poor fit]"
2,NC(=O)C1=C[C@H](c2csc3ccccc23)C[C@H](OCCCCO)O1,inactive
3,CCn1c(Cn2nnc(-c3ccccc3)n2)nnc1SCC(=O)Nc1ccc(C(C)=O)cc1,inactive
4,CC1CCCC(C)N1S(=O)(=O)c1ccc(NC(=O)c2ccccc2C(=O)N2CCOCC2)cc1 (centres undefined),"inconclusive [inhibitor, full curve, poor fit]"
5,Cc1oc2c(cc(NS(=O)(=O)c3cccs3)c3ccccc32)c1C(=O)OC(C)C,inactive
6,Cc1ccc(-c2nnc(Oc3ccc(NC(=O)c4ccccc4)cc3)c3ccccc23)cc1,"inconclusive [inhibitor, partial curve, poor fit]"
7,CC(=O)N1CCN(c2ccc(NC(=O)c3cccc(C)c3)cc2)CC1,inactive
8,CN1C(=O)C(C)(C)c2cc(S(=O)(=O)N3CCN(c4ccc(F)cc4)CC3)ccc21,"inconclusive [inhibitor, full curve, poor fit]"
9,COc1cc(/C=N\n2cnnc2)ccc1OCC(=O)Nc1ccc(C)cc1,"inconclusive [inhibitor, full curve, poor fit]"
10,COc1cc2ccccc2cc1C(=O)Nc1ccc(C)cc1,"inconclusive [inhibitor, full curve, poor fit]"
11,Cn1c2c(c(=O)c3ccccc31)CCC(C)(C)O2,"inconclusive [inhibitor, partial curve]"
12,Cc1c(N=CC=Nc2c(C)n(C)n(-c3ccccc3)c2=O)c(=O)n(-c2ccccc2)n1C,inactive
13,CCc1nc2ccc(C(=O)NC3CCC(C)CC3)cc2nc1CC (centres undefined),"inconclusive [inhibitor, full curve, poor fit]"
14,O=C(COC(=O)c1nc(Cl)ccc1Cl)NC1CCS(=O)(=O)C1 (centres undefined),"inconclusive [inhibitor, full curve]"
15,Cc1ccc2[nH]c3c(c2c1)CN(C(=O)CN1c2ccc(F)cc2CCC1C)CC3 (centres undefined),"inconclusive [inhibitor, full curve]"
16,O=C1C(Nc2cccc(O)c2)=C(N2CCCCC2)C(=O)c2ccccc21,"inconclusive [inhibitor, full curve]"
17,CCn1c(SCc2ccccc2)nnc1-c1cccs1,"inconclusive [inhibitor, single point]"
18,Cc1ccc(S(=O)(=O)N2[C@@H](c3ccccc3F)C(C(=O)O)=CC[C@H]2c2cccs2)cc1,inactive
19,O=C(CCCn1c(=O)c2ccccc2n(CC(=O)NCc2ccco2)c1=O)NCc1ccco1,"inconclusive [inhibitor, single point]"
20,COC(=O)c1[nH]c2cc(OC)ccc2c1NC(=O)c1ccc2c(c1)OCO2,inactive
21,COC(=O)Nc1ccccc1C(=O)N1CCC(O)(c2ccc(Cl)cc2)CC1,"inconclusive [inhibitor, partial curve]"
22,COc1ccccc1N1CCN(C2CC(=O)N(c3cccc(Cl)c3)C2=O)CC1 (centres undefined),"inconclusive [inhibitor, full curve, poor fit]"
23,COc1ccc(C(=O)N2C[C@H]3C[C@@H](C2)c2cccc(=O)n2C3)cc1OC,"inconclusive [inhibitor, partial curve, poor fit]"

row,Compound,Potency
1,Cc1ccc(-c2nc3ccccc3c(=O)n2-c2ncccc2C)cc1,"inconclusive [inhibitor, partial curve]"
2,COc1ccccc1Nc1nc(N)nc(CSc2nc(C)cc(C)n2)n1,inactive
3,CCOC(=O)C1=C(CC)Nc2ccccc2N=C1NC(=O)Cn1cnc2ccccc2c1=O,"inconclusive [inhibitor, full curve, poor fit]"
4,COc1ccc(CCC(C)N2CCOCC2)cc1 (centres undefined),"inconclusive [inhibitor, full curve, poor fit]"
5,Cc1cc(C)cc(-n2ncc3c2CCCC3NC(=O)c2cc(C)n(C)n2)c1 (centres undefined),inactive
6,O=C(c1c(F)cccc1F)N1CCCc2ccccc21,"inconclusive [inhibitor, full curve]"
7,O=C(c1cc(-c2ccccc2Cl)nc2ccccc12)N1CCOCC1,"inconclusive [inhibitor, partial curve, poor fit]"
8,O=C(Cn1nc(-c2ccc3c(c2)OCCO3)ccc1=O)Nc1ccc(-n2cnnn2)cc1,"inconclusive [inhibitor, full curve, poor fit]"
9,NC(=O)c1nsc(C(=O)N(c2ccccc2F)C(C(=O)NCc2ccccc2)c2ccc(O)cc2)c1N (centres undefined),inactive
10,CN1CCC/C1=C/C=C1\SC(=S)NC1=O,inactive
11,COc1ccc(OC)c(NC(=O)CSc2ncccc2C(=O)O)c1,"inconclusive [inhibitor, partial curve]"
12,C=CCNC(=S)N/N=C/c1ccc(C)c([N+](=O)[O-])c1,inactive
13,COc1cc(C(=O)O/N=C2/C=C(C)C(=O)C=C2C)cc(OC)c1OC,"inconclusive [inhibitor, single point]"
14,COc1ccc(-c2nnc3sc(-c4ccccc4OC)nn23)cc1,"inconclusive [inhibitor, partial curve, poor fit]"
15,Cc1ccc(-n2nc(C(=O)N(C)c3ccccc3Cl)c3c4ccccc4n(C)c3c2=O)cc1,inactive
16,COc1ccc(NC(=O)C(Sc2nnc3ccccn23)c2ccccc2)cc1Cl (centres undefined),"inconclusive [inhibitor, single point]"
17,Cc1ccc(NC(=O)CCn2c(=O)[nH]c3ccsc3c2=O)cc1C,"inconclusive [inhibitor, full curve]"
18,Cc1ccccc1-c1nc(CS(=O)CC(=O)N2CCC3(CC2)OCCO3)c(C)o1 (centres undefined),inactive
19,Cc1cccc(C(=O)c2cn[nH]c2-c2ccc(C)cc2O)c1,"inconclusive [inhibitor, partial curve, poor fit]"
20,Cc1nnc(NC(=O)C(C)Sc2nncn2C)s1 (centres undefined),"inconclusive [inhibitor, full curve]"
21,Oc1ccc(C2CNCc3sccc32)cc1O (centres undefined),"inconclusive [inhibitor, full curve, poor fit]"
22,CNC(=S)Nc1cccc(-c2cnc3ccccc3n2)c1,"inconclusive [inhibitor, single point]"
23,Cn1c(=O)c2ncn(CC(=O)Nc3nc(-c4ccc(Cl)cc4)cs3)c2n(C)c1=O,inactive
